Reference: PubChem BioAssay AID624296 (National Center for Advancing Translational Sciences (NCATS), 2012)
In all, about 350,000 compounds went through this assay and about 9,900 (2.8%) were called active. Inconclusive results, whose numbers are uncertain, are shown with a selection of clear calls. The call rests on the fitted dose curve; in most records, active means well fitted activation curve with a large enough effect; inconclusive means small, poorly fitted or top-dose-only effect; inactive means no such curve, though single readings can be large or run the other way. Potencies of inconclusive entries are left out as doubtful fits.

assay: A quantitative high throughput screen for small molecules that induce DNA re-replication in MCF 10a normal breast cells.; further: nearly all actives have a fitted effect of over 50% in size; on activity, positive = re-replication: % of control where 0% means no effect; details: MCF 10A DNA re-replication, Hoechst nuclear intensity, 48 h; activity, positive = re-replication: at 46.1 µM (top of the series)
Potency means the concentration at half of the fitted maximal effect; tags describe the fitted curve by direction and shape.

Structure (SMILES) | activity, positive = re-replication | Potency
O=C1C=C(Nc2ccc(Cl)cc2)C(=O)N1c1ccc(Cl)cc1 | inactive: -4.23% | –
Cc1ccc(Sc2c(C=O)c3ccccc3n2C)cc1 | – | inconclusive [activator, single point]
Cc1ccc(C)c(-n2sc3ccc(F)cc3c2=O)c1 | – | inconclusive [activator, partial curve, poor fit]
Cc1ccc(C(=O)Nc2ncccc2C)cc1S(=O)(=O)N1CCCCC1 | inactive: -0.452% | –
Cc1[nH]c(C)c2c(=O)n(Cc3ccc(Cl)cc3)ncc12 | inactive: -6.32% | –
CCN(Cc1ccccc1)S(=O)(=O)c1ccccc1Br | – | inconclusive [activator, single point]
O=C(O)COc1ccc2oc3ccccc3c2c1 | – | inconclusive [activator, partial curve]
Cc1cc(C)cc(OCC(=O)NCC2CCCO2)c1 (configuration not stated) | – | inconclusive [activator, full curve, poor fit]
CN1CCN(c2ccc(NS(=O)(=O)c3ccc(Cl)cc3)cn2)CC1 | – | inconclusive [activator, single point]
CCOc1ccccc1N(CC(=O)Nc1cccnc1)S(=O)(=O)c1ccc(C)cc1 | – | inconclusive [activator, partial curve, poor fit]
O=C(Cn1nnc(-c2ccccc2Cl)n1)Nc1cccc(S(=O)(=O)N2CCCC2)c1 | inactive: 16.7% | –
CC(C)(C)c1ccc(OCC(O)CN2CCc3ccccc3C2)cc1 (configuration not stated) | inactive: 5.72% | –
COc1cc(C(=O)NCc2cccc3ccccc23)ccc1OCc1ccccc1 | inactive: -2.07% | –
Cc1ccc(S(=O)(=O)NC2CC3CCC2C3)cc1 (configuration not stated) | – | inconclusive [activator, full curve]
Cc1cc(/C=C2\SC(=O)N(C)C2=O)c(C)n1-c1ccc(O)cc1 | – | inconclusive [activator, single point]
CCNC(=S)NCc1ccc(Cl)cc1 | inactive: -2.46% | –
COc1ccc(C2=NOC(C(=O)NCc3ccc(F)cc3)C2)cc1OC (configuration not stated) | – | active: 1.64 µM
COc1cc2oc(-c3ccc(O)cc3)cc(=O)c2c(O)c1OC | inactive: 12% | –
CCN1c2ccccc2NC2N=C(OC)C(c3ccccc3)C21 (configuration not stated) | – | inconclusive [activator, single point]
COc1cc(Nc2nc(-c3ccccc3)c3cc(C)ccc3n2)cc(OC)c1OC | – | inconclusive [activator, single point]
C=CCOc1c(Br)cc(/C=N/Nc2ccc(C(=O)O)cc2)cc1OCC | – | inconclusive [activator, single point]
Cc1ccn2cc(-c3ccc(NS(=O)(=O)c4ccccc4)cc3)nc2c1 | – | inconclusive [activator, partial curve, poor fit]
COc1ccc(C2CC(c3cccs3)=NN2c2ccc(F)cc2)cc1OC (configuration not stated) | – | inconclusive [activator, single point]
O=C(CSC1=NCCS1)NC(c1ccccc1)c1ccccc1 | – | inconclusive [activator, single point]

Structure (SMILES) | activity, positive = re-replication | Potency
CC(=NNC(=S)N1CCCCCC1)c1ccccn1 | – | inconclusive [activator, full curve, poor fit]
COc1ccc(-c2oc3ccccc3c2C#CC(C)(C)O)cc1 | – | inconclusive [activator, single point]
Cc1ccc(OCCOCCOc2ccc(Br)cc2/C=N\NC(=O)c2ccncc2)cc1 | – | active: 20.6 µM
CCCOc1cccc(-c2cc(C(=O)N/N=C/c3cccnc3)c3ccccc3n2)c1 | – | inconclusive [activator, partial curve]
CC(NC(=O)C1CCN(S(=O)(=O)c2cc([N+](=O)[O-])ccc2Cl)CC1)c1ccccc1 (configuration not stated) | inactive: -5.35% | –
O=C(O)c1ccc(S(=O)(=O)c2ccccc2C(=O)O)c([N+](=O)[O-])c1 | – | inconclusive [activator, single point]
CCNC(=O)COC(=O)c1[nH]c(C)c(C(=O)OC)c1C | inactive: 4.88% | –
COc1cc(C(=O)NC2=NCCS2)ccc1OCc1c(C)noc1C | – | inconclusive [activator, partial curve, poor fit]
CC(=O)c1sc(NC(=O)C2(F)C(F)(F)C(F)(F)C(F)(F)C(F)(F)C2(F)F)nc1C | – | active: 9.2 µM
CCOC(=O)N1CCN(C(=O)c2ccc3c(c2)sc2nc(-c4ccccc4)cn23)CC1 | – | inconclusive [activator, partial curve, poor fit]
CC(C)(C)c1ccc(-c2conc2N)cc1 | – | active: 17.8 µM
S=C(NNc1ccc2ccccc2c1)NC1CCCCC1 | – | active: 4.61 µM
COC(=O)c1ccc(/C=C/c2ccc3cccc(OC)c3n2)cc1 | – | inconclusive [activator, partial curve, poor fit]
O=C(c1cccnc1)N1CCN(S(=O)(=O)c2ccc(S(=O)(=O)N3CCCC3)cc2)CC1 | – | inconclusive [activator, full curve]
O=C(N1CCN=C1SCc1cccnc1)C12CC3CC(CC(C3)C1)C2 | – | inconclusive [activator, single point]
Cc1ccc(C)c(SCc2noc(C(=O)NC(C)C)c2C(=O)O)c1 | – | inconclusive [activator, partial curve]
CCC(C)Sc1cc(-c2nc3ccc(C)cn3c2NCc2ccccc2)ccc1OC (configuration not stated) | – | inconclusive [activator, partial curve, poor fit]
CC(=O)Oc1ccccc1C1=NN(C(C)=O)C(c2ccccc2)C1 (configuration not stated) | inactive: -3.27% | –
Cc1csc2nc(O)c(C(=O)NCCCN3CCCC3=O)c(=O)n12 | inactive: -1.81% | –
CC(=O)c1ccc(OCCCC(=O)Nc2ccc(C)c(S(=O)(=O)N(C)C)c2)cc1 | inactive: 3.75% | –
Clc1ccc(/C=C/c2nc3ccccc3[nH]2)cc1 | – | inconclusive [activator, single point]
COc1ccc(NC(=O)C(C)N2c3cccc4cccc(c34)S2(=O)=O)c(OC)c1 (configuration not stated) | – | inconclusive [activator, full curve, poor fit]
COc1cccc(-c2nnc(SCC(=O)N(C(C)C)C(C)C)o2)c1 | – | inconclusive [activator, partial curve, poor fit]
CCOc1ccc(Nc2ncnc3ccc([N+](=O)[O-])cc23)cc1 | inactive: 19.1% | –

Structure (SMILES) | activity, positive = re-replication | Potency
c1ccc(-n2ncc3c(NCc4ccc5c(c4)OCO5)ncnc32)cc1 | – | inconclusive [activator, full curve]
Cc1oc2cc([N+](=O)[O-])c(O)c([N+](=O)[O-])c2c1C(=O)c1ccc(Cl)cc1 | – | inconclusive [activator, partial curve, poor fit]
CCCc1nc2oc3c(NCCN4CCOCC4)ncnc3c2c2c1CCCC2 | inactive: 4.42% | –
O=C1CC(c2ccccc2)CN1C(=O)c1cccc([N+](=O)[O-])c1 (configuration not stated) | – | inconclusive [activator, partial curve, poor fit]
CCOC(=O)Cc1csc(NC(=O)CSc2nc(N)c3c(C)c(C)sc3n2)n1 | inactive: 7.63% | –
Cc1nc(C)c(-c2csc(Nc3ccc(O)cc3C)n2)s1 | – | inconclusive [activator, single point]
Cc1cc(C)n(-c2nc3ccccc3c3nc(C)nn23)n1 | inactive: -11.5% | –
CC12C=CC3(O1)C(C(=O)N1CCCOC13)C2C(=O)O (configuration not stated) | inactive: -4.78% | –
O=C(CCNS(=O)(=O)c1ccccc1F)N1CCN(C/C=C/c2ccccc2)CC1 | inactive: 0.689% | –
CCOC(=O)CC(=O)Nc1c(C)cc(C)cc1C | inactive: -5.84% | –
Fc1ccccc1N1CCN(C2CCCN(Cc3cccc(C(F)(F)F)c3)C2)CC1 (configuration not stated) | – | inconclusive [activator, single point]
CC(=O)Nc1nc(C)c(Oc2cccc(C(F)(F)F)c2)c(=O)[nH]1 | – | inconclusive [activator, partial curve, poor fit]
CCCCn1c(SCN2C(=O)c3ccccc3C2=O)nc2cc(S(N)(=O)=O)ccc21 | – | inconclusive [activator, full curve, poor fit]
CC1CCN(CCCOc2ccc(Cl)cc2Br)CC1 | inactive: 0.625% | –
Cc1coc2cc3oc(=O)cc(C)c3cc12 | inactive: -56% | –
COC(=O)c1c(N2C(=O)[C@H]3[C@@H](C2=O)[C@]2(C(=O)Nc4c(C)cccc42)N2CCC[C@@H]32)sc(C)c1C | – | inconclusive [activator, single point]
O=C(Oc1ccc(-c2csnn2)cc1)C1CC1 | inactive: 1.27% | –
COc1cccc(C(=O)CSc2nnc(CNS(=O)(=O)c3ccc(C)cc3)n2C)c1 | – | inconclusive [activator, partial curve, poor fit]
O=c1c2ccccc2n(Cc2cccc(F)c2)c(=O)n1C1CCCC1 | – | inconclusive [activator, partial curve, poor fit]
Cc1[nH]n(-c2cccc(Cl)c2)c(=O)c1-c1ccccc1 | – | inconclusive [activator, single point]
O=S(=O)(NCc1cc(-c2ccc(Cl)cc2)no1)c1ccc(Cl)cc1 | – | inconclusive [activator, single point]
Cn1cc(S(=O)(=O)NCc2ccc(Cl)cc2)c(=O)n(C)c1=O | inactive: 12% | –
Cc1c(C(=O)N2CCc3ccccc32)oc2c1C(=O)CC(C)(C)C2 | – | inconclusive [activator, full curve]
O=C(CCc1nc2ccccc2[nH]c1=O)OCc1ccc(S(=O)(=O)N2CCOCC2)cc1 | – | inconclusive [activator, partial curve, poor fit]
